From publication PMC4336329 (PLoS ONE, 2015)
Hit rate of the full screen: of about 310,000 compounds, about 14,000 (4.5%) showed an effect of 50% or more. The effect is printed as a negative number. The list shows a part of the results.

Target: human ether-à-go-go-related gene (hERG) potassium channel (human, UniProt Q12809)
Assay: primary screen, population patch clamp on CHO cells stably expressing hERG
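Note: peak tail current of the secondary pulse compared with the same well before compound.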

Chain of human ether-à-go-go-related gene (hERG) potassium channel (Q12809 whole entry, looked up): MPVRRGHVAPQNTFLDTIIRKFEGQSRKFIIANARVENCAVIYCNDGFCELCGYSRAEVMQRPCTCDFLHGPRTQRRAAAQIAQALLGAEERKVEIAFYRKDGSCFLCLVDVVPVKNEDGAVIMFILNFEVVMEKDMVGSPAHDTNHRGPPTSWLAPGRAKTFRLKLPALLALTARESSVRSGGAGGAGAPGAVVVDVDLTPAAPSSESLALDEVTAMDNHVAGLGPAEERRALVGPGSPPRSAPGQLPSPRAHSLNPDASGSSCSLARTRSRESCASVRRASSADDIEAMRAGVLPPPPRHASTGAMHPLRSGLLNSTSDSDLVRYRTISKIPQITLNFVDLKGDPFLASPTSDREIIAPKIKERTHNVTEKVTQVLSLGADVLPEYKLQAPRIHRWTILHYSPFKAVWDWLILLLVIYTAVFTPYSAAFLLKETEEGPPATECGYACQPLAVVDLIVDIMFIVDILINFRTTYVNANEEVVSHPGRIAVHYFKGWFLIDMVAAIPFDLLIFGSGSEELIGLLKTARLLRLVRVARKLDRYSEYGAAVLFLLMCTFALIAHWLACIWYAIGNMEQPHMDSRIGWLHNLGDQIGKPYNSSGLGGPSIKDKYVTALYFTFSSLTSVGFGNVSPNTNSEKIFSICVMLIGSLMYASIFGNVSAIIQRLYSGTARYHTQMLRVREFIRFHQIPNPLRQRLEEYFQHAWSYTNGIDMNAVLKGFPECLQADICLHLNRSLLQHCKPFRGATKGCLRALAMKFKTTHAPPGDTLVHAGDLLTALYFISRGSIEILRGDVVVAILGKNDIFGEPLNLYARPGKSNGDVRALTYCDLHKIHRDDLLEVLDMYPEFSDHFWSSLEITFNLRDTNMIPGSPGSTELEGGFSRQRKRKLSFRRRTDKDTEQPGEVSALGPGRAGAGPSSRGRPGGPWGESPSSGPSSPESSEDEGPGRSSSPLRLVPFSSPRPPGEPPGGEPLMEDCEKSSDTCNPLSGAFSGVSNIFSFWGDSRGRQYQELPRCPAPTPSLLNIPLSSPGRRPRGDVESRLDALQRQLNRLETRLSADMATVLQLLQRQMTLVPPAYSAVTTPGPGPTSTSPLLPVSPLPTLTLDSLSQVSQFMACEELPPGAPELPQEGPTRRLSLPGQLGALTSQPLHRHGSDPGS

Row | SMILES | hERG current change (%, negative = inhibition) at 10uM [%]
1 | CCCc1ccc(-c2cc(C(=O)N/N=C/c3ccc([N+](=O)[O-])o3)c3ccccc3n2)cc1 | -1.61
2 | O=C(CC1Nc2ccccc2NC1=O)Nc1ccc2c(c1)OCO2 (stereo not drawn) | 15.9
3 | CCOC(=O)c1cccc(NC(=O)c2cccnc2)c1 | -8.41
4 | Cl.NC(CCC(=O)O)C(=O)O (stereo not drawn) | 18.8
5 | O=C(c1cc(-c2cccc(Cl)c2)on1)N1CCOCC1 | 1.33
6 | O=C(CCCN1C(=O)/C(=C/c2ccccc2Cl)SC1=S)NNC(=O)c1cccnc1 | -10.7
7 | O=C(Nc1cc(Cl)ccc1O)C1CC(c2ccccc2Cl)=NO1 (stereo not drawn) | 20.3
8 | Cc1ccc(S(=O)(=O)NCCCn2ccnc2)cc1 | 5.87
9 | O=C(NCC1CCN(S(=O)(=O)c2ccccc2)CC1)Nc1ccccc1 | 11.1
10 | COc1ccc(-n2nc(C(=O)NCC(=O)NCC3COc4ccccc4O3)c3ccccc3c2=O)c(OC)c1 (stereo not drawn) | -34.3
11 | COc1ccc(NC(=O)COC(=O)c2c3c(nc4ccccc24)CCCC3)cc1Cl | 9.73
12 | COCCSc1nnc(NC(=O)C2CCCO2)s1 (stereo not drawn) | 8.75
13 | Cc1[nH][nH]c(=O)c1[C@@H](c1ccccc1[N+](=O)[O-])C(C#N)C#N | 7.28
14 | Cc1cc2cc(CNC(=O)c3ccc(Br)o3)ccc2[nH]1 | -14
15 | CN(C)CCN(C(=O)c1ccc2ccccc2c1)c1nc2cc3c(cc2s1)OCCO3.Cl | 7.59
16 | O=C(NCc1ccc(F)cc1)C1CCCN(S(=O)(=O)c2cccc3nsnc23)C1 (stereo not drawn) | 11.2
17 | O=C(CCCn1c(=O)oc2ccccc21)NC1CCCCCC1 | 1.07
18 | Cn1c(SCC(=O)NCc2cccs2)nnc1-c1ccncc1 | 9.54
19 | CC(=O)NCCCc1nc2ccccc2n1Cc1ccccc1C | -3.63
20 | COc1ccc2c(c1)c(CC(=O)OCC(=O)N(C)C)c(C)n2C(=O)c1ccc(Cl)cc1 | -22.5
21 | COc1ccc(C(=O)NNC(=O)c2ccc(S(=O)(=O)N3CC(C)OC(C)C3)cc2)cc1 (stereo not drawn) | 17.8
22 | COc1cc(NC(=S)Nc2cccnc2)cc(OC)c1OC | 15.6

Row | SMILES | hERG current change (%, negative = inhibition) at 10uM [%]
23 | CC(C)c1ccc(/C=C/C(=O)N2CCOCC2)cc1 | 7.48
24 | Cc1ccc(C2CC(c3ccccc3Cl)n3nc(N)nc3N2)cc1 (stereo not drawn) | 2.3
25 | COc1ccc(CCN=CC2=C(O)CC(C)(C)CC2=O)cc1 | 16.6
26 | Nc1nc(SCC(=O)Nc2ccc(Cl)c(S(=O)(=O)N3CCOCC3)c2)n[nH]1 | 0.0508
27 | O=[N+]([O-])c1ccc(CN2CCN(Cc3c[nH]c4ccccc34)CC2)cc1 | -77.8
28 | Cc1[nH]n(-c2ccccc2)c(=O)c1CCO | 13.7
29 | O=C1c2ccccc2NC(c2ccc3c(c2)OCO3)N1O (stereo not drawn) | 16.1
30 | COC(=O)CSc1nnc(CNC(=O)c2ccc(S(=O)(=O)N3CCOCC3)cc2)n1C | 23.7
31 | COc1ccccc1CCC(=O)Nc1ccc2c(c1)CN(CCCn1cccn1)CC2 | -29.6
32 | Cc1ccc(OCCSc2nnc(-c3cccs3)n2C)cc1 | -37
33 | O=C(CSc1nnc(-c2ccncc2)n1-c1ccc(F)cc1)NC(=O)NCc1ccco1 | -30.9
34 | COc1ccc(/C=C/C(=O)c2ccc(O)cc2)cc1CN1CCOCC1 | -11.3
35 | Cc1cc(N2CCCC2)nc(SCC(=O)c2ccccc2)n1 | 9.08
36 | COc1ccc(Oc2nc3c(c(=O)n(C)c(=O)n3C)n2Cc2cccc(OC)c2)cc1 | -1.66
37 | Cc1cccc2c1Sc1ccccc1CC2=O | 0.0655
38 | COc1ccc(CN2CCN(C(=O)Cc3ccccc3)CC2)c(OC)c1 | -31.5
39 | Cc1cc(C)c2cc(C#N)c(SCC(=O)NCc3ccco3)nc2c1 | 5.93
40 | CCN(CC(=O)NCc1cccs1)S(=O)(=O)c1ccccc1Cl | -11.3
41 | Cc1nc(-c2ccccn2)sc1C(=O)Nc1ccc(Cl)c(Cl)c1 | -13.4
42 | Brc1ccc(-c2csc(NC3=NCCCCC3)n2)cc1 | -3.95
43 | COc1ccc(CNCc2cc(Cl)ccc2O)cc1.Cl | -24.9
44 | COc1ccc(OC)c(C2CC(=O)N3CN(c4ccccc4)CSC3=C2C#N)c1 (stereo not drawn) | 9.38

Row | SMILES | hERG current change (%, negative = inhibition) at 10uM [%]
45 | COC(=O)c1ccc(Cn2c(O)c(N=O)c3ccccc32)o1 | 2.32
46 | CCNc1nc(Oc2ccc(C(=O)OC)cc2)nc(N2CCOCC2)n1 | -0.413
47 | O=C(c1ccccc1Nc1ccc(SC(F)F)cc1)N1CCCCCC1 | 8.04
48 | CN(C(=O)CN1CCN(c2ccc([N+](=O)[O-])cn2)CC1)c1ccccc1 | -49.1
49 | CCCc1nnc(-c2ccc(OC)cc2)o1 | 1.84
50 | O=C(NCCn1cccn1)C1CCC(=O)N(CCc2ccc(Cl)cc2)C1 (stereo not drawn) | 5.51
51 | CC(=O)c1ccc(OCCCN2CCCCC2)cc1.O=C(O)C(=O)O | -22.2
52 | O=C1/C(=C\c2cccnc2)SC(=S)N1C1CCS(=O)(=O)C1 (stereo not drawn) | -1.96
53 | CCn1c(/C=C/Nc2ccccc2)[n+](CC)c2ccc(C(=O)OCC(F)(F)F)cc21.[I-] | -81.6
54 | O=C1CCc2ccccc2N1Cc1ccccc1 | -8.95
55 | CCCOc1ccc(N2C(=O)CC(N3CCC(O)(c4cccc(C(F)(F)F)c4)CC3)C2=O)cc1 (stereo not drawn) | -21.9
56 | NC(=O)N/N=C/c1ccc(OCc2cccc(Cl)c2)cc1 | 26.8
57 | O=[N+]([O-])c1ccc(N2CCOCC2)cc1NC(c1ccccc1)c1ccccc1 | 1.88
58 | CC1Cc2ccccc2N1C(=O)Cn1c(=O)oc2cc(S(=O)(=O)NC3CCCC3)ccc21 (stereo not drawn) | -13.5
59 | O=C(CCc1ccccc1)NCC(c1ccco1)N1CCc2ccccc21 (stereo not drawn) | -56.2
60 | Cc1cccc(N2CCN(C(=O)c3cccs3)CC2)c1C | -10.6
61 | Cc1cc(SCC(=O)OCC(=O)N(C)c2ccccc2)nc2ccccc12 | -22.8
62 | CCOC(=O)C(=NCCCN(C)C)NNc1ccc(Br)cc1 | -35.3
63 | Cl.O=C1c2cccc3cccc(c23)C(=O)N1CC1CCN(CC(O)COc2ccc3ccccc3c2)CC1 (stereo not drawn) | -46.1
64 | COc1ccc(C(C(=O)NC2CCCC2)N(C(=O)c2ccco2)c2cc3c(cc2C(C)=O)OCO3)cc1OC (stereo not drawn) | 8.95
65 | CC(C)=CCc1c(O)cc(O)c2c(=O)c3c(CC=C(C)C)c(O)ccc3oc12 | 11.7
66 | COc1ccc2nc(NC(=O)c3ccccc3F)sc2c1 | -0.416

Row | SMILES | hERG current change (%, negative = inhibition) at 10uM [%]
67 | CCCn1c(SCC(=O)c2c[nH]c3ccccc23)nnc1-c1ccncc1 | 4.4
68 | Cc1ccc(NC(=O)Cn2cnc3ccccc32)cc1C | -3.44
69 | C#CCOC(=O)C(NC(=O)c1ccccc1)=C(C)C | 5.56
70 | O=C(/C=C/c1ccc2c(c1)OCO2)Nc1nc2ccc(F)cc2s1 | 32.5
71 | CC(C)c1ccc(N(CC(=O)NCc2ccc(F)cc2)C(=O)c2snc(C(N)=O)c2N)cc1 | 6.89
72 | COc1ccc(CNC(=O)COc2ccc(S(=O)(=O)NC(C)C)cc2)cc1 | -0.279
73 | COc1cc(OC)cc(-c2c(C#Cc3ccsc3)c3cc(-c4cnc(OC)nc4)ccc3n2C)c1 | 2.52
74 | O=C(CSc1nnc(Cc2cccs2)n1C1CCCCC1)N1CCCc2ccccc21 | -24.4
75 | CSc1ccccc1NC(=O)COC(=O)c1ccccc1O | 4.27
76 | COC(=O)c1ccc(Cl)c(NC(=O)CSc2nnc(-c3ccncc3)o2)c1 | 18.9
77 | O=C1c2ccccc2NC(c2ccc(Br)o2)N1O (stereo not drawn) | -3.37
78 | Cc1cc(C)cc(C(=O)N2CC(C)SC2=Nc2cccc(S(=O)(=O)N(C)C)c2)c1 (stereo not drawn) | -25.3
79 | COc1ccc(/C(N)=N/OC(=O)CC2CCCCC2)cc1OC | -5.6
80 | CCC(C(=O)NC1CCCC1)N(C(=O)Cn1nnc(-c2ccc(C)o2)n1)c1cccc(O)c1 (stereo not drawn) | 15
81 | CCC(=O)Nc1ccc(C(=O)NNC(=O)C(c2ccccc2)c2ccccc2)cc1 | 12.8
82 | O=S(=O)(NCC(c1ccc2c(c1)OCO2)N1CCOCC1)c1ccc(F)cc1 (stereo not drawn) | -6.81
83 | O=C(CN1C(=O)C2CC=CCC2C1=O)Nc1ccc(S(=O)(=O)NC2=NCCCCC2)cc1 (stereo not drawn) | 1.02
84 | O=C(Nc1ccccc1F)Nc1ccc([N+](=O)[O-])cc1Cl | 18.4
85 | COc1ccc(NC(=O)CSCC(=O)N(C)Cc2c(F)cccc2Cl)cc1 | -22.1
86 | COc1ccc2[nH]c(C(=O)Nc3ccccc3Cl)cc2c1 | 6.19
87 | C=CCn1c(SCC(=O)Nc2ccc(-c3nc4ccc(C)cc4s3)cc2)nnc1-c1ccncc1 | -2.88
